# Assay results published in PubChem BioAssay AID445 (National Center for Advancing Translational Sciences (NCATS), 2006).
# Screen size: about 110,000 compounds; about 40 (0.04%) were called active. Inconclusive means that the source gave no clear call. Such entries were picked first, then a sample of the others. The call rests on the fitted dose curve; in most records, active means well fitted curve in the direction sought with a large enough effect in the signal ratio (not every such curve was filed as active); inconclusive means small, poorly fitted or top-dose-only effect, or a change in a side signal; inactive means flat fitted curve, though single readings scatter; the % refers to the signal ratio. A potency beside an inconclusive call is a rough fit, not a confirmed value.
# Experiment: IkB Signaling;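 on IkBa stabilization activation: 0% = basal untreated cells and 100% = reference inhibitor full response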
# Details: ABC-DLBCL IkBa-CBG/CBR dual luciferase ratio (green luciferase fused to IkBa over red control in OCI-Ly3 lymphoma cells), 4 h; IkBa stabilization activation: at 57.1 µM (top of the series), scaled: untreated 0%, proteasome inhibitor 100% unless noted
# Procedure, shortened: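 Curves were fitted separately to fusion (green), unfused (red) and ratio luminescence, then classed by r2, magnitude and activity. Cells: OCI-Ly3, 4 h compound plus doxycycline at 37C; 10 uM MG-132 defined full response.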
# Potency means the concentration at half of the fitted maximal effect.
SMILES,IkBa stabilization activation,Potency
CSc1cccc(NC(=O)CN(C)S(=O)(=O)c2ccc3c(c2)n(C)c(=O)c(=O)n3C)c1,inconclusive: 2.29% [signal inhibitor],–
COc1ccccc1N1CCN(C(=O)CSc2nc3ccccc3c(=O)n2CC2CCCO2)CC1 (stereo not drawn),inconclusive: -1.59% [signal inhibitor],–
O=c1ccc2cc(S(=O)(=O)N3CCCC3)ccc2[nH]1,inconclusive: -1.2% [signal inhibitor],–
C=CCn1c(=O)[nH]c2cc(C(=O)N3CCN(c4cccc(Cl)c4)CC3)ccc2c1=O,inconclusive: 2.13% [signal inhibitor],–
Cn1c(=O)cc(OCCCC(=O)Nc2ccccn2)c2ccccc21,inconclusive: 5.5% [signal inhibitor],–
Fc1ccc(CNc2nc3c(-c4ccc(F)cc4)nnn3c3ccccc23)cc1,–,"inconclusive: 5.01 µM [signal inhibitor, partial curve]"
COc1cc(C(=O)NCc2ccc3c(c2)CCN3C(=O)c2ccncc2)cc(OC)c1OC,inconclusive: 0.401% [signal inhibitor],–
Cc1ccc(NC(=O)NCCc2c(C)nn(C)c2C)c(Cl)c1,inconclusive: -0.543% [signal activator],–
COCCCNC(=O)CN1C(=O)c2c(c3ccccc3n2C)C1c1ccc(OC)cc1 (stereo not drawn),inconclusive: 0.435% [signal inhibitor],–
CCS(=O)(=O)CCSc1nc2c(cc1C#N)CCCC2,inactive: 2.38%,–
O=C(COC(=O)c1ccccc1NC(=O)c1ccco1)NCCC1=CCCCC1,inactive: 0.717%,–
Cc1[nH]nc2c1C(C(C)C)C(C#N)=C(N)O2 (stereo not drawn),inconclusive: 5.71% [signal inhibitor],–
COc1cc(CN2CCc3nc(Nc4ccc5c(c4)OCCO5)ncc3C2)cc(OC)c1OC,inconclusive: -1.53% [signal inhibitor],–
CCC(=O)N1CCc2cc(S(=O)(=O)NC(C(=O)NCc3ccc(OC)cc3)C(C)C)ccc21 (stereo not drawn),inactive: 1.06%,–
CCC(=O)Nc1sc2c(c1C(N)=O)CCC2,inconclusive: 0.725% [signal inhibitor],–
COc1cccc(N2C(=O)CSC23C(=O)N(CC(=O)Nc2cc(C)ccc2C)c2ccccc23)c1 (stereo not drawn),inconclusive: 11.2% [signal inhibitor],–
CCCCCCSC1=C(C#N)C(c2ccc(O)cc2)CC(=O)N1 (stereo not drawn),inconclusive: 1.87% [signal inhibitor],–
Cc1c(C(=O)N2CCOCC2)[nH]c2c1C(=O)CC(c1ccc(Cl)cc1)C2 (stereo not drawn),inconclusive: 0.867% [signal inhibitor],–
CCOC(=O)c1cc2c(=O)n3ccccc3nc2n(Cc2ccco2)c1=NC(=O)c1cc(C)cc(C)c1,inconclusive: 0.243% [signal inhibitor],–
COC(=O)c1ccc(NC(=O)c2nn(C)c3c2CS(=O)(=O)c2ccccc2-3)cc1,inconclusive: -1.62% [signal inhibitor],–
CCc1ccccc1NC(=O)CC(c1ccc(F)cc1)N1Cc2ccccc2C1=O (stereo not drawn),inconclusive: -3.68% [signal inhibitor],–
COc1ccc(CCNc2nc3c(c(=O)n(C)c(=O)n3C)n2Cc2ccc(F)cc2)cc1OC,inconclusive: 2.17% [signal inhibitor],–

SMILES,IkBa stabilization activation,Potency
COc1ccc2[nH]cc(CCNC(=O)Nc3ccccc3C)c2c1,inconclusive: 3.02% [signal inhibitor],–
Cc1ccc2sc(N3CCN(C(=O)C4COc5ccccc5O4)CC3)nc2c1C (stereo not drawn),inactive: 8.77%,–
O=C(Nc1c(C(=O)N2CCN(c3ccc(F)cc3)CC2)oc2ccccc12)c1ccco1,inconclusive: -0.167% [signal inhibitor],–
COc1ccc(NC(=O)c2c(C)oc3ccc(O)c(CN4CCN(C)CC4)c23)cc1Cl,inconclusive: 8.59% [signal inhibitor],–
O=C(CN1CCN(C2CCCCC2)CC1)c1ccc2cc[nH]c2c1,inactive: 3.85%,–
COc1ccc(CCNC(=O)c2ccc(CS(=O)(=O)c3ccc(C)cc3)o2)cc1OC,inconclusive: 2.15% [signal inhibitor],–
COc1cc(OC)cc(-c2cc3nc(C)c(CCC(=O)O)c(C)n3n2)c1,–,"inconclusive: 5.01 µM [signal inhibitor, partial curve]"
COc1ccc(-c2cnc(SCC(=O)Nc3ccc4c(c3)OCO4)n2Cc2ccco2)cc1,inconclusive: 2.68% [signal inhibitor],–
Cc1ccc(-c2nnc(Nc3ccc(C(N)=O)cc3)c3ccccc23)cc1S(=O)(=O)N1CCCCC1,inconclusive: 19% [signal inhibitor],–
O=C(CSc1nc2ccccc2n1Cc1ccc(F)c(Cl)c1)N1CCN(c2ccc(F)cc2)CC1,inconclusive: -0.714% [signal inhibitor],–
Cc1cccc(-n2ccnc2SCC(=O)Nc2ccccc2C(F)(F)F)c1,inconclusive: -2.5% [signal inhibitor],–
CCCc1nn2c(=O)cc(COC(=O)c3ccc(NC(=O)c4cccs4)cc3)nc2s1,inactive: -1.11%,–
COc1ccccc1C1C=C(c2ccc(C)cc2)Nc2nnnn21 (stereo not drawn),inactive: 1.06%,–
C=CCc1c(C)nc(SC)nc1Nc1ccc(C(C)=O)cc1,inconclusive: -0.522% [signal inhibitor],–
CCOC(=O)Cc1ccc(NC(=O)Nc2nnc(N3CCCCC3C)s2)cc1 (stereo not drawn),inconclusive: 0.991% [signal inhibitor],–
Oc1c(C(c2ccccc2)N2CCc3ccccc3C2)sc2ncnn12 (stereo not drawn),inactive: 0.06%,–
COC(=O)c1ccc(NC(=O)c2c(-c3ccccc3)c(-c3ccccc3)nn(C)c2=O)cc1,inconclusive: -0.138% [signal inhibitor],–
O=C(Nc1ccc2c(c1)CCCN2C(=O)c1cccs1)c1ccccc1C(F)(F)F,inconclusive: 2.03% [signal inhibitor],–
CCCN(C(=O)c1cc2c(s1)-c1ccccc1OC2)c1ccc(C(C)C)cc1,inconclusive: 6.41% [signal inhibitor],–
CCOC(=O)c1ccc(NC(=O)Nc2cc3c(cc2N2CCCCC2)n(CC)c(=O)n3CC)cc1,inconclusive: 0.856% [signal inhibitor],–
CN1CCN(c2ncc3nc(-c4cc(F)cc(F)c4)c(=O)n(C)c3n2)CC1,"inactive: -2% [at 11.4 µM, scaled: untreated 0%, proteasome inhibitor 100%]",–
